Test results from PubChem BioAssay AID686971 (National Center for Advancing Translational Sciences (NCATS), 2013).
Several values for one entry are separate records, joined by “and”; a condition that tells them apart may be missing. Equal entries are not always repeated. Among all 360,000 compounds or so, about 7,500 (2.1%) were called active. The shares of active, inactive and inconclusive entries below differ from those in the screen. The call rests on the fitted dose curve; in most records, active means well fitted cell-killing curve with a large enough effect; inconclusive means small, poorly fitted or top-dose-only effect, or effect the other way, or another doubt; inactive means no such curve, though single readings can be large or run the other way. No potency is given beside an inconclusive call; the fits are too rough.

experiment: qHTS for induction of synthetic lethality in tumor cells producing 2HG: qHTS for the HT-1080-IDH1KD cell line; settings: HT-1080 IDH1 knockdown viability, ATP luminescence, 48 h; activity, negative = toxicity: at 46.1 µM (top of the series) unless noted;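 on activity, negative = toxicity: 0% = DMSO wells and -100% = cell-free medium wells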
Method in brief: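 Knockdown cells (IDH1KD HT-1080) received compounds 2 h after plating at 750 cells/well and were kept 48 h at 37 °C in 5% FBS RPMI. A CellTiter-Glo luminescence read gave % activity for curve fitting.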
Potency means the concentration at half of the fitted maximal effect; tags describe the fitted curve by direction and shape.

Compound	Potency	activity, negative = toxicity
C/C(=N\NS(=O)(=O)c1ccc(C)cc1)c1ccc(Br)s1	inconclusive [cytotoxic, single point]	–
O=C(/C(=C/c1ccc(Cl)cc1)c1nc2ccccc2[nH]1)c1cccs1	active: 16.4 µM	–
CCCSC(=S)c1c(C)[nH]n(-c2ccccc2)c1=O	active: 13 µM	–
COc1ccc(NC(=S)NNc2ccc(S(=O)(=O)Nc3ccccc3C(=O)O)cc2[N+](=O)[O-])cc1	inconclusive [cytotoxic, single point]	–
Cc1ccc(C(=O)NCCSc2ccccc2)cc1S(=O)(=O)Nc1ccccc1	inconclusive [cytotoxic, single point]	–
O=c1[nH]c2ccccc2n1CCC1CCCCC1	inconclusive [cytotoxic, single point]	–
CCCn1c(CN2CCN(C(=O)OCC)CC2)nc2cc(NC(=O)CC)ccc21	active: 5.8 µM	–
Cc1ccccc1-c1cc2nc(OCC3CCCO3)n(C)c(=O)c2s1 (configuration not stated)	inactive	–
CN(CC(=O)Nc1ccccc1Br)C(=O)c1ccccc1OCc1ccccc1Cl	inconclusive [cytotoxic, single point]	–
O=C(O)CCCNc1cc(N2CCN(C(=O)c3ccco3)CC2)c2noc3c2c1C(=O)c1ccccc1-3	inconclusive [cytotoxic, single point]	–
O=C(CSc1nc(-c2ccccc2)c(-c2ccccc2)[nH]1)NCCN1C(=O)CSC1=O	active: 6.51 µM	–
Clc1ccccc1Cn1c(/C=C/c2ccco2)nc2ccccc21	active: 23.1 µM	–
O=C(Nc1ccccc1)C1=C(c2ccccc2)S(=O)(=O)CCS1(=O)=O	active: 3.26 µM	–
O=C(NNc1ccccc1)c1sc2ccccc2c1Cl	–	inconclusive: -12.3% [cytotoxic]
CCOC(=O)c1sc(NC(=O)c2cc(-c3ccccc3C)nc3ccccc23)c(C#N)c1C	inconclusive [cytotoxic, partial curve, poor fit]	–
CC(C)(C)OC(=O)N1CCC[C@H]1c1nnc(SCc2ccc(Cl)cc2Cl)o1	inconclusive [cytotoxic, single point]	–
Cc1cc(C2N=C(N)Nc3nc4ccccc4n32)c(C)n1-c1ccccc1Cl (configuration not stated)	inconclusive [cytotoxic, single point]	–
C=CCc1cccc(/C=N/NC(=O)CNc2cccc3ccccc23)c1O	inconclusive [cytotoxic, single point]	–
Cc1cc(C)c(NC(=O)C(C)c2cccc(C(=O)c3ccccc3)c2)c(C)c1 (configuration not stated)	inconclusive [cytotoxic, single point]	–
O=C(Nc1ccc(F)cc1)Nc1sccc1-c1nc2ccccc2s1	active: 18.4 µM	–
CC(=O)N1CCN(C(=O)c2ccc(Cl)c(S(=O)(=O)N3CC(C)OC(C)C3)c2)CC1 (configuration not stated)	inactive	–
O=C(Nc1ccc([N+](=O)[O-])cc1)Nc1ccc(OC(F)F)c(Cl)c1	inconclusive [cytotoxic, single point]	–
CCOc1ccc(S(=O)(=O)Nc2ccc(S(=O)(=O)Nc3cc(OC)ccc3OC)cc2)cc1	inconclusive [cytotoxic, single point]	–
COc1ccc(C2CC(c3ccc(Br)cc3)=NN2C(=O)CN2CCCC2)cc1 (configuration not stated)	inconclusive [cytotoxic, partial curve]	–

Compound	Potency	activity, negative = toxicity
OCC1(Cc2ccc(Cl)cc2)CCN(Cc2ccccc2F)CC1	inconclusive [cytotoxic, single point]	–
COc1cc(NC(=O)c2csc(N)n2)cc(C(=O)Nc2cccc(C(F)(F)F)c2)c1	active: 18.4 µM and active: 20.6 µM	–
CC(C)/C=C/C(=O)N1CCC(N2CCC(C(=O)N3CCOCC3)CC2)CC1	inactive	–
CCCCNC(=O)c1cc2c(-c3ccc(Cl)cc3)nn(C)c2s1	inactive	–
CC(C)(C)c1cc(C(=O)NNc2cccc(Cl)c2)n(Cc2ccccc2)n1	active: 18.4 µM	–
Cc1[nH]c2ccccc2c1C(=O)/C=C/c1ccccc1	inconclusive [cytotoxic, single point]	–
CCOC(=O)c1ccc(Oc2cc(C)nc(SC)n2)cc1	active: 14.6 µM	–
COc1ccc(C(C)(O)c2nc(-c3cccc(O)c3)cs2)cc1 (configuration not stated)	active: 8.2 µM	–
CN(C)S(=O)(=O)c1ccc(S(=O)(=O)NCc2cccs2)cc1	inactive	–
CS(=O)(=O)N1CCN(c2ccc(NC(=O)c3cc4ccccc4o3)cc2)CC1	inactive	–
Cc1cccc(NS(=O)(=O)c2cccc(C(=O)N3CCN(C/C=C/c4ccccc4)CC3)c2)c1	inactive	–
CC(=O)c1ccc(N2C(=O)C3C(C2=O)C(C(=O)c2ccc(Cl)cc2)N2CCCC32)cc1 (configuration not stated)	inconclusive [cytotoxic, single point]	–
CC(C)OCC(O)Cn1c(N2CCCC2)nc2c1c(=O)n(C)c(=O)n2C (configuration not stated)	inactive	–
Cc1noc(C)c1C(=O)NC1=NCCS1	inactive	–
O=[N+]([O-])c1ccc(NC(=S)NCCc2ccc(Cl)cc2)cc1	inconclusive [cytotoxic, single point]	–
COc1cc(/C=C2\SC(=O)NC2=O)ccc1Oc1ccc([N+](=O)[O-])cc1[N+](=O)[O-]	inconclusive [cytotoxic, partial curve]	–
Cc1nc(N2CCC(C)CC2)c2oc3ccccc3c2n1	inconclusive [cytotoxic, single point]	–
Cc1cc(C)c(CN2CCC(N3CCC(C(=O)NCC4CCCO4)CC3)CC2)cc1C (configuration not stated)	inconclusive [cytotoxic, single point]	–
COC(=O)[C@H](NC(=O)c1cc([C@@H](NC(=O)OC(C)(C)C)C(C)C)sc1N)C(C)C	inactive	–
Cc1nnsc1SCCNC(=O)Nc1ccc(Cl)cc1	inactive	–
CN(C)CCNC(=O)c1sc2nc(-c3ccccc3)cc(C(F)(F)F)c2c1N	active: 18.4 µM	–
CC1(C)OC(=O)N(c2ccccc2)C12C=Cc1c(ccc3ccccc13)O2 (configuration not stated)	inconclusive [cytotoxic, single point]	–
Cn1cccc1C(=O)C(=O)Nc1cc(Cl)cc(Cl)c1	inconclusive [cytotoxic, single point]	–
CC1(C(=O)Nc2ccc3c(c2)OCCO3)CSCC(=O)N1CCOc1ccccc1 (configuration not stated)	inactive	–

Compound	Potency	activity, negative = toxicity
C=CCSc1nc2ccccc2n1C(=O)/C=C/c1cc(OC)c(OC)c(OC)c1	active: 2.24 µM	–
O=C(NNc1ccc(-c2csnn2)cc1)c1ccccc1C(F)(F)F	inconclusive [cytotoxic, partial curve]	–
CCC(c1nnnn1-c1ccc2c(c1)OCCO2)N1CCN(c2cc(C)ccc2C)CC1 (configuration not stated)	inconclusive [cytotoxic, single point]	–
Nc1nc2ccccc2cc1C(=O)NCCCCc1ccccc1	inconclusive [cytotoxic, full curve]	–
C[C@]12CC[C@H](O)CC1=CCC1C2CC[C@@]2(C)C1CC[C@@H]2NC(=O)[C@@H](N)CO (some centres not stated)	inconclusive [cytotoxic, partial curve]	–
CC1(C)CC(=O)C=C(C#CC2(O)CCCCC2)C1	active: 13 µM	–
COc1cc(-c2cc(C(=O)Nc3cccc(S(=O)(=O)N(C)C)c3)c3ccccc3n2)cc(OC)c1OC	inconclusive [cytotoxic, single point]	–
c1ccc(-c2csc3ncnc(NCCCN4CCOCC4)c23)cc1	inconclusive [cytotoxic, partial curve]	–
CN(C)c1ccc(/C=C2/C[N+](C)(C)C/C(=C/c3ccc(N(C)C)cc3)C2=O)cc1	active: 16.4 µM	–
CCCCCC(O)(c1ccc(OC)cc1)C(CN1CCOCC1)c1ccccc1 (configuration not stated)	inconclusive [cytotoxic, single point]	–
CCCCCCCC(=O)NNC(=O)CC(=O)Nc1ccccc1C(=O)O	inactive	–
Cc1c(C#N)c(NC(=O)CCl)n(Cc2cccs2)c1C	inconclusive [cytotoxic, partial curve]	–
O=C(Nc1ccc(Nc2ccccc2)cc1)c1ccc(Br)o1	–	inconclusive: 5.47%
CC(C)(C)C(=O)Nc1ccc(C(=O)OC2CCCCC2)cc1	inconclusive [cytotoxic, partial curve]	–
Cc1ccc(-c2csc(NC(=O)CN3C(=O)CCC3=O)n2)cc1	inactive	–
Cc1cc(Nc2ccccc2Cl)nc(-c2ccccc2O)n1	inconclusive [cytotoxic, single point]	–
COc1ccccc1NC(=S)N(Cc1cccnc1)Cc1ccccc1Cl	inactive	–
CCc1ccccc1NC(=O)CN(C)C(=O)Cn1ncc(Cl)c(Cl)c1=O	inconclusive [cytotoxic, full curve, poor fit]	–
Cc1ccccc1OCC(=O)NNC(=S)NC(=O)c1ccco1	active: 8.91 µM	–
CCCCC(=O)NC(c1cccc([N+](=O)[O-])c1)c1c(OC(C)=O)ccc2ccccc12 (configuration not stated)	inconclusive [cytotoxic, single point]	–
COc1cccc(OCCn2cc(/C=N/NC(=O)c3ccncc3)c3ccccc32)c1	inconclusive [cytotoxic, single point]	–
COc1c(F)c(F)c(C(=O)Nc2ccc(N3CCN(Cc4ccccc4)CC3)cc2)c(F)c1F	inconclusive [cytotoxic, single point]	–
Cc1cccc(OCC(=O)NCC(=O)N/N=C/c2ccc(O)cc2O)c1	active: 18.4 µM	–
CN1CCCC(CC2Oc3ccccc3Sc3ccccc32)C1 (configuration not stated)	active: 20.6 µM	–
